We go through one molecule from PubChem BioAssay AID1851 (National Center for Advancing Translational Sciences (NCATS), 2009).

The list shows a part of the results, in another mix than the full data. Results filed as inconclusive are left out. Activity calls are given as the source filed them. Calls follow the shape of the dose curve; as a rule, active = well fitted curve in the direction sought with a large enough effect; inconclusive = small, poorly fitted or top-dose-only effect, or effect the other way; inactive = no such curve, though single readings can be large or run the other way.
% is scaled to controls: 0 for no effect and ±100 for the full control effect.

The test has as its target Cytochrome P450 2C9 (Homo sapiens) (UniProt P11712). Kind of test: Cytochrome panel assay with activity outcomes. The settings on record: recombinant CYP, pro-luciferin dealkylation, luminescence, p450-cyp2c9; at 11.4 µM (top of the series).
Chain of UniProt P11712 (P11712 whole entry, looked up): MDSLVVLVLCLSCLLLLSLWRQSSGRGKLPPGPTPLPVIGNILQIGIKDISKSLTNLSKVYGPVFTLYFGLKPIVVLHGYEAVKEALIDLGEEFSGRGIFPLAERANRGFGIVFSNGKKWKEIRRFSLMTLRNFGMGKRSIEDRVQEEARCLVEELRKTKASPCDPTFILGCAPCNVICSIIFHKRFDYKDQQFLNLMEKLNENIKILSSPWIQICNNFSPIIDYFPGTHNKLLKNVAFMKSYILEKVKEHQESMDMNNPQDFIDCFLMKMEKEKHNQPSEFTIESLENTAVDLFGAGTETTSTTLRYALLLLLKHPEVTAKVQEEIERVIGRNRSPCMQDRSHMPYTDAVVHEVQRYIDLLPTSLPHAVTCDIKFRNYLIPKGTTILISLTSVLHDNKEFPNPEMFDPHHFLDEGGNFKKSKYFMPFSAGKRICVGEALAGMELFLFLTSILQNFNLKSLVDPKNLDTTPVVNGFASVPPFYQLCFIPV
As for `CN1[C@@H]2CC[C@H]1CC(OC(=O)[C@@H](O)c1ccccc1)C2` (stereo partly specified), the activity, negative = inhibition was inactive: 1.96%.
